The text below walks through data of the supplement of paper PMC4604168 (melanoma cell lines).

The other results are listed elsewhere or left out. Repeats are few or missing, and single values can be far off.

Common to all, as to assay: cell count relative to DMSO control; melanoma cells; higher = more viable cells
Conditions in all cases: library dose: low library concentration; 72 h

Test [1] relates to WM115.
The subject of test [2] is WM1716.
Test [3] relates to WM1745.
In test [4] the test system is WM3526.
Test [5] deals with WM3619.
Test [6] concerns WM451Lu.
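Also: cell number obtained by counting DAPI-stained nuclei in high-throughput microscope images with image analysis software, screen run in 1,536-well plates.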

For `O=C(/C=C/c1cccnc1)NCCCCC1CCN(C(=O)c2ccccc2)CC1` + NC1(c2ccc(-c3nc4ccn5c(=O)[nH]nc5c4cc3-c3ccccc3)cc2)CCC1 [MK2206] (first compound 0.01 µM, partner dose 0.4 µM), the cell count in test [1] was determined as 76.4%; in test [2], 87.6%; in test [3] it was 83.6%; in test [4] it was 79.6%; in test [5], 72.2%; in test [6], 113%.
As to `O=C(/C=C/c1cccnc1)NCCCCC1CCN(C(=O)c2ccccc2)CC1` + O=C(CCCCCCC(=O)Nc1ccccc1)NO [vorinostat] (first compound 0.01 µM, partner dose 0.08 µM), the cell count in test [1] came out at 76.8%; in test [2], 98.8%; in test [3] it was 91.7%; in test [4], 97.6%; in test [5], 86.9%; in test [6], 78.4%.
As for `O=C(/C=C/c1cccnc1)NCCCCC1CCN(C(=O)c2ccccc2)CC1` + COc1cc2ncnc(Nc3ccc(Oc4ccccc4)cc3)c2cc1OC [SrcI1] (first compound 0.01 µM, partner dose 2 µM), the cell count in test [1] is 83.3%; in test [2], 128%; in test [3], 103%; in test [4] it was 96.5%; in test [5], 82.8%; in test [6] it was 109%.
Take `CC1(C)CCC(c2ccc(Cl)cc2)=C(CN2CCN(c3ccc(C(=O)NS(=O)(=O)c4ccc(N[C@H](CCN5CCOCC5)CSc5ccccc5)c(S(=O)(=O)C(F)(F)F)c4)cc3)CC2)C1` + CO[C@H]1C[C@@H]2CC[C@@H](C)[C@@](O)(O2)C(=O)C(=O)N2CCCC[C@H]2C(=O)O[C@H]([C@H](C)C[C@@H]2CC[C@@H](OCCO)[C@H](OC)C2)CC(=O)[C@H](C)/C=C(\C)[C@@H](O)[C@@H](OC)C(=O)[C@H](C)C[C@H](C)/C=C/C=C/C=C/1C [everolimus] (first compound 0.4 µM, partner dose 0.02 µM): the cell count in test [1] came out at 55.3%; in test [2], 61%; in test [3] it was 18.6%; in test [4], 53.9%; in test [5] it was 42.2%; in test [6] it was 73.3%.
